{"source": "patent US20240115549A1", "about": "“TREATMENT OF MENTAL DISORDERS” (GH Research Ireland Limited, priority 2022, published 2024)", "experiment": "LC-MS/MS of 5-MeO-DMT, bufotenine and 5-MIAA in breastmilk, serum and urine of a treated PPD patient; infant dose estimates", "conditions": "5 kg infant, three feeds of 250 ml"}
{"compound": "COc1ccc2[nH]cc(CCN(C)C)c2c1", "note": "[5-MeO-DMT]", "values": [{"measurement": "Total exposure of the infant (Daily Infant Dosage, DID)", "value": 692425, "unit": "pg 5-MeO-DMT/day"}]}
